In all, about 50,000 compounds went through this assay and about 800 (1.6%) showed an effect of 50% or more. Some of the results follow.
What follows are molecules tested against Bcl-2-like protein 10 (Homo sapiens) (UniProt Q9HD36) (assay: TR3 peptide-Bcl-B binding displacers, biochemical primary FP assay, phenotype converters (AID 1240;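 further: 0% = Bcl-B with tracer peptide and DMSO and 100% = tracer peptide lacking Bcl-B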)). Settings: GST-Bcl-B / FITC-TR3 peptide fluorescence polarization; stronger effect = higher value; compound at 3.75 mg/L.
Sequence of UniProt Q9HD36 (Q9HD36 whole entry, looked up): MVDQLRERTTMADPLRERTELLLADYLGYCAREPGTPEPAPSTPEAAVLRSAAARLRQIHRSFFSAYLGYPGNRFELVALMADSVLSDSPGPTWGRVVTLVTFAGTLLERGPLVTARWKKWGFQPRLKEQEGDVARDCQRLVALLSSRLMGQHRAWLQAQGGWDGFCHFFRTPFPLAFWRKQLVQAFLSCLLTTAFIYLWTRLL

Row | SMILES | displacement [%]
1 | COc1ccc(C(=O)Nc2ccc(I)cc2Cl)cc1Cl | -7
2 | CC(Sc1nnc(N)s1)c1ccccc1 (stereo unspecified) | 5.2
3 | CCOc1cccc(C(=O)Nc2scc(-c3ccc(C)cc3)c2C(=O)OC)c1 | -5.1
4 | CN(Cc1ccccc1)C(=O)c1ccc2c(c1)OCCO2 | 8.7
5 | O=C(c1c(Cl)cccc1Cl)N1CCN(c2ccccc2)CC1 | 5.9
6 | CCOC(=O)c1c(NC(=O)c2ccc(OC)c(OC)c2)sc(C(=O)Nc2ccc(C)cc2C)c1C | -0.6
7 | COc1cccc(CN2CCN(C(=O)c3cc(OC)cc(OC)c3)CC2)c1 | 17.3
8 | O=C(CSCC(=O)Nc1ccccc1)NCC(=O)c1ccccc1 | -7.9
9 | O=C(Nc1cccc(C(F)(F)F)c1)c1ccc(Cl)cc1Cl | 10.8
10 | COc1cccc(OCCNC(=O)c2ccc(C)cc2)c1 | -15.4
11 | COc1ccccc1N1COc2ccc3ccccc3c2C1 | 11
12 | CCOC(=O)COc1ccc2oc(C)c(C(=O)OC(C)C)c2c1 | 8.9
13 | Cc1ccc(-n2nc3cc(C)c(NC(=O)c4cccc(Br)c4)cc3n2)cc1 | -0.8
14 | CCc1c(C)sc(NC(=O)c2ccc([N+](=O)[O-])cc2Cl)c1C(N)=O | 8.9
15 | COC(=O)C1=C(C)N=c2s/c(=C\c3ccc(-c4ccc(OC)cc4[N+](=O)[O-])o3)c(=O)n2C1c1ccccc1 (stereo unspecified) | 11
16 | O=C(NC1CCCCC1)c1ccc([N+](=O)[O-])cc1 | 0.7

Row | SMILES | displacement [%]
17 | CCOc1cc(/C=C2\C(=O)NC(=O)N(c3cc(C)cc(C)c3)C2=O)cc(Cl)c1O | 11.4
18 | COc1ccc(/C=C/C(=O)NCC2COc3ccccc3O2)cc1OC (stereo unspecified) | -18.2
19 | Cc1cc(/C=C2/NC(=O)NC2=O)c(-c2ccccc2)n1-c1ccccc1 | -5.1
20 | O=C(Nc1ccccc1C(=O)N1CCOCC1)c1ccccc1F | 5.5
21 | CCCCCCCCc1nnc(NC(C)=O)s1 | -12.2
22 | CSC1=NC(C)(C)CC12C=CC(=O)C=C2 | 16.9
23 | CC(=O)c1cccc(NC(=O)Cc2cccs2)c1 | 15.1
24 | COc1cc(/C=N/NC(=O)COc2cccc(C)c2)cc([N+](=O)[O-])c1O | 4.4
25 | Cc1cc(C)n(C(=O)CNC(=O)c2ccc(F)cc2)n1 | 7
26 | CCOc1ccc(N2C(=O)NC(=O)/C(=C/c3cccc4ccccc34)C2=O)cc1 | 1.4
27 | Cc1ccccc1NC(=O)c1ccc2ccccc2n1 | -3.8
28 | CC(=O)NC(NC(=S)Nc1ccc(C(C)=O)cc1)C(Cl)(Cl)Cl (stereo unspecified) | -2
29 | COc1cc(/C=C2/SC(=S)N(C)C2=O)ccc1OCCOc1cc(C)ccc1C(C)C | 0.8
30 | O=C(Nc1ccc(Cc2ccncc2)cc1)c1ccc(-c2ccc(Br)cc2)o1 | 109
31 | COc1ccccc1N1C(=O)S/C(=C\c2ccccc2Cl)C1=O | -1.5
